Test results from the supplement of paper PMC12067093, “Discovery and optimisation of a covalent ligand for TRIM25 and its application to targeted protein ubiquitination” (Chemical Science, 2025).
About 21,000 targets were measured; listed, in parts, are those with the largest changes and a random draw of the rest.

Compound: CC1Cc2ccccc2N1C(=O)C1CCCN(C1)C(=O)CCl (mixture of isomers) [TRIM25 ligand 11 (diastereomer mixture)]
Test: probe-labelled cysteine peptide fold change vs DMSO (competition) (log2 fold change); higher = less target engagement (more negative = stronger competition)
Conditions: THP-1, incubation time: 4 h
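Further: competitive chemoproteomic profiling in live THP-1 cells with an iodoacetamide desthiobiotin (IA-DTB) probe, comparing probe-labelled peptide intensities in compound-treated cells against DMSO-treated controls.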

Target | probe-labelled cysteine peptide fold change (10 µM) | probe-labelled cysteine peptide fold change (50 µM)
PRKDC_P78527_3683_ECSPWMSDFKVEFLRNELEIPGQYDGR (UniProt P78527) | -0.7 | -0.257
PPIP5K1_Q6PFW1_627_SANMNGLLDSDGDSLSSCQHR (UniProt Q6PFW1) | -0.0216 | -0.728
PRMT1_Q99873-3_15_AAAEAANCIMEVSCGQAESSEK (UniProt Q99873) | 0.348 | 0.353
PRKD2_Q9BZL6_278_VPHTFLIHSYTRPTVCQACK (UniProt Q9BZL6) | -0.272 | 0.0117
PHLPP1_O60346_859_LGDLDAMIFNNIEVLHCER (UniProt O60346) | 0.218 | 0.0372
PFN1_P07737_128_KCYEMASHLRR (UniProt P07737) | -0.652 | -0.367
PGM3_O95394_93_LVDPLGEMLAPSWEEHATCLANAEEQDMQR (UniProt O95394) | 0.59 | 0.0508
PRDX1_Q06830_71+83_KLNCQVIGASVDSHFCHLAWVNTPKK (UniProt Q06830) | -0.375 | -0.184
PPFIBP2_Q8ND30_837_KFDESTDYICPMEPSDGVSDSHR (UniProt Q8ND30) | -0.0603 | -0.214
POLR2A_P24928_71_CQTCAGNMTECPGHFGHIELAK (UniProt P24928) | -0.199 | -0.159
PRPF6_O94906_807_ALQECPNSGILWSEAIFLEARPQRR (UniProt O94906) | -0.16 | 0.0594
PRPF3_O43395_37_RVLGFSEPTVVTAALNCVGK (UniProt O43395) | -0.604 | -0.0882
PPIP5K2_O43314_382_CVIAVIR (UniProt O43314) | -0.0407 | 0.136
